3 molecules from patent US20240254223A1 (NOVIMMUNE, published 2024) can be followed below.

Experiment [1] concerns the target T1, high affinity trimeric IL-2R (IL-2Rα, IL-2Rβ and IL-2Rγ) on HEK-Blue IL-2 cells (UniProt P01589 22-272; P14784 27-551; P31785 23-369).
T1 sequence (looked up) 1: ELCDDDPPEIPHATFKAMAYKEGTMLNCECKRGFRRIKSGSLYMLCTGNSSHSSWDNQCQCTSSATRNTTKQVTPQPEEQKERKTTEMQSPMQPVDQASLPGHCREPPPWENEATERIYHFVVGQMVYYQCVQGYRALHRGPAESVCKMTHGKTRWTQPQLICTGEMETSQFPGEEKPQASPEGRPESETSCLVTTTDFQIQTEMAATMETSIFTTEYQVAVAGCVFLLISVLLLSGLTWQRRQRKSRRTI
T1 sequence (looked up) 2: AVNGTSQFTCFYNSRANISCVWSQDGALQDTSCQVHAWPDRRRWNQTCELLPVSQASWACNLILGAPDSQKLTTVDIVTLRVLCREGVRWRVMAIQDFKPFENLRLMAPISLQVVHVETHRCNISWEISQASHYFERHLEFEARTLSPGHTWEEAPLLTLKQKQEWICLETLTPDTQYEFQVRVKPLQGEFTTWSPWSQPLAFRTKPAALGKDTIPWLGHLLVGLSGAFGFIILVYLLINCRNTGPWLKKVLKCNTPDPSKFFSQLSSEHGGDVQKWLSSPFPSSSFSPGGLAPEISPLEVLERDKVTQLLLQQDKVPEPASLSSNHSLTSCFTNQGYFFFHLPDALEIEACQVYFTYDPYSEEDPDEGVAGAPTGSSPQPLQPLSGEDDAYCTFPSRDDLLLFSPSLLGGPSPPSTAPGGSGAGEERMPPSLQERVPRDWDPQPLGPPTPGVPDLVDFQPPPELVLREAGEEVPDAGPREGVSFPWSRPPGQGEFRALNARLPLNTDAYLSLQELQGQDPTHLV
T1 sequence (looked up) 3: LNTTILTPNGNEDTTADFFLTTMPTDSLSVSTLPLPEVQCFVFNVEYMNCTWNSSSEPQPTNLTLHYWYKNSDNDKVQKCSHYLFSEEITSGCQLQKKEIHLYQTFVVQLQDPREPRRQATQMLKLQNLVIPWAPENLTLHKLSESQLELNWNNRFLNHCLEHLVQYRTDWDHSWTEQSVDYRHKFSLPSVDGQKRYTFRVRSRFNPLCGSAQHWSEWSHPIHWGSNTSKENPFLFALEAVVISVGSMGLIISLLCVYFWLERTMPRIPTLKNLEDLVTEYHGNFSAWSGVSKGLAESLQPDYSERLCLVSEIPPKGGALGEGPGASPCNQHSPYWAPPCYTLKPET
Kind of experiment: cell-based or functional assay.

In experiment [2] the target is T2, CD47 at the surface of Peak cells (human, UniProt Q08722).
T2 construct: whole, on cells; also called cell surface CD47
Put plainly: flow cytometry, Peak cells, before cleavage.

In a further experiment the target is T3, His-tagged human CD47 (human, UniProt Q08722 in part, limits assumed).
T3 construct: loaded on HIS1K biosensors at 2.5 µg/mL; also called target antigen; not shown: His tag
Put plainly: BLI, His-CD47 on HIS1K sensor, antibody 15 µg/mL. Background: BLI is a label-free optical method that tracks binding on a fibre tip over time.

Experiment [3] deals with T2, CD47 at the surface of Peak cells. Kind of experiment: flow cytometry, Peak cells; EC50 before / EC50 after cleavage.
Experiment [4] has as its target T4, low-moderate affinity dimeric IL-2R (IL-2Rβ and IL-2Rγ) on HEK-Blue CD122/CD132 cells (UniProt P14784 27-551; P31785 23-369, limits assumed).
T4 sequence (looked up) 1: T1 sequence (looked up) 2
T4 sequence (looked up) 2: T1 sequence (looked up) 3
Put plainly: cell-based or functional assay.

B1: pNOVI V2K K91_J3_IL-2Rα_1_238_IL-2_21_153_CM1 VKCK_IL-2Rα_1_238_IL-2_21_153_CM1 VHCH (antibody, human IgG1, kappa)
light: ELCDDDPPEIPHATFKAMAYKEGTMLNCECKRGFRRIKSGSLYMLCTGNSSHSSWDNQCQCTSSATRNTTKQVTPQPEEQKERKTTEMQSPMQPVDQASLPGHCREPPPWENEATERIYHFVVGQMVYYQCVQGYRALHRGPAESVCKMTHGKTRWTQPQLICTGEMETSQFPGEEKPQASPEGRPESETSCLVTTTDFQIQTEMAATMETSIFTTEGGGGSGGGGS[about 150 residues left out]GGGGSVHMPLGFLGPGGSDIQMTQSPSSLSASVGDRVTITCNVDQVIANWLNWYQQKPGKAPKLLIYAASSLQSGVPSRFSGSGSGTDFTLTISSLQPEDFATYYCQQMHPRAPKQFGQGTKVEIKRTVAAPSVFIFPPSDEQLKSGTASVVCLLNNFYPREAKVQWKVDNALQSGNSQESVTEQDSKDSTYSLSSTLTLSKADYEKHKVYACEVTHQGLSSPVTKSFNRGEC
heavy: ELCDDDPPEIPHATFKAMAYKEGTMLNCECKRGFRRIKSGSLYMLCTGNSSHSSWDNQCQCTSSATRNTTKQVTPQPEEQKERKTTEMQSPMQPVDQASLPGHCREPPPWENEATERIYHFVVGQMVYYQCVQGYRALHRGPAESVCKMTHGKTRWTQPQLICTGEMETSQFPGEEKPQASPEGRPESETSCLVTTTDFQIQTEMAATMETSIFTTEGGGGSGGGGS[about 150 residues left out]GGGGSVHMPLGFLGPGGS[about 120 residues left out][about 100 residues left out][human IgG1 Fc left out]
notes: masked K91 fusion, uncleaved; also called n1051; construct No 1051
Regarding B1, in experiment [1], the “EC50 before cleavage IL-2, HEK Blue IL-2 αβγ reporter assay” value was 0.28 nM and the “EC50 ratio (BC/AC), HEK Blue IL-2 αβγ reporter assay” value amounted to 9. For the same molecule, in experiment [2], the concentration for a half-maximal effect (EC50) (commonly the concentration that produces a half-maximal response) came to 29.9 nM. Besides, the “Binding before cleavage (BLI)” value in the experiment with His-tagged human CD47 was determined as 0.1 nm. Further, the “Binding recovery (BC/AC)” value in experiment [3] is 80.

B2: pNOVI V2K K91_E6_IL-2Rα_1_238_CM1_IL-2_21_153_CM1 VKCK IL-2Rβ_1_239_CM1_VHCH (antibody, human IgG1, kappa)
light: ELCDDDPPEIPHATFKAMAYKEGTMLNCECKRGFRRIKSGSLYMLCTGNSSHSSWDNQCQCTSSATRNTTKQVTPQPEEQKERKTTEMQSPMQPVDQASLPGHCREPPPWENEATERIYHFVVGQMVYYQCVQGYRALHRGPAESVCKMTHGKTRWTQPQLICTGEMETSQFPGEEKPQASPEGRPESETSCLVTTTDFQIQTEMAATMETSIFTTEGGGGSVHMPLGFLGPGGGGS[about 150 residues left out]GGGGSVHMPLGFLGPGGSDIQMTQSPSSLSASVGDRVTITCNVDQVIANWLNWYQQKPGKAPKLLIYAASSLQSGVPSRFSGSGSGTDFTLTISSLQPEDFATYYCQQMHPRAPKQFGQGTKVEIKRTVAAPSVFIFPPSDEQLKSGTASVVCLLNNFYPREAKVQWKVDNALQSGNSQESVTEQDSKDSTYSLSSTLTLSKADYEKHKVYACEVTHQGLSSPVTKSFNRGEC
heavy: AVNGTSQFTCFYNSRANISCVWSQDGALQDTSCQVHAWPDRRRWNQTCELLPVSQASWACNLILGAPDSQKLTTVDIVTLRVLCREGVRWRVMAIQDFKPFENLRLMAPISLQVVHVETHRCNISWEISQASHYFERHLEFEARTLSPGHTWEEAPLLTLKQKQEWICLETLTPDTQYEFQVRVKPLQGEFTTWSPWSQPLAFRTKPAALGKDGGGGSVHMPLGFLGPGGS[about 120 residues left out][about 100 residues left out][human IgG1 Fc left out]
notes: masked K91 fusion, uncleaved; also called n651; construct No 651
Take B2: in experiment [1], the “EC50 before cleavage IL-2, HEK Blue IL-2 αβγ reporter assay” value was 0.29 nM and the “EC50 ratio (BC/AC), HEK Blue IL-2 αβγ reporter assay” value was 18. In addition, in experiment [4], the “EC50 before cleavage IL-2, HEK Blue IL-2 βγ reporter assay” value turned out to be 0.24 nM and the “EC50 ratio (BC/AC), HEK Blue IL-2 βγ reporter assay” value was determined as 24. In experiment [2], the EC50 worked out at 68.3 nM. The “Binding before cleavage (BLI)” value with His-tagged human CD47 was 0.4 nm. In addition, in experiment [3], the “Binding recovery (BC/AC)” value came to 95.

B3: pNOVI V2K K91_M2_IL-2Rα_1_238_CM1_IL-2 F42A_21_153_CM1 VKCK IL-2Rβ_1_239_CM1_VHCH (antibody, human IgG1, kappa)
light: ELCDDDPPEIPHATFKAMAYKEGTMLNCECKRGFRRIKSGSLYMLCTGNSSHSSWDNQCQCTSSATRNTTKQVTPQPEEQKERKTTEMQSPMQPVDQASLPGHCREPPPWENEATERIYHFVVGQMVYYQCVQGYRALHRGPAESVCKMTHGKTRWTQPQLICTGEMETSQFPGEEKPQASPEGRPESETSCLVTTTDFQIQTEMAATMETSIFTTEGGGGSVHMPLGFLGPGGGGS[about 150 residues with changes left out]GGGGSVHMPLGFLGPGGSDIQMTQSPSSLSASVGDRVTITCNVDQVIANWLNWYQQKPGKAPKLLIYAASSLQSGVPSRFSGSGSGTDFTLTISSLQPEDFATYYCQQMHPRAPKQFGQGTKVEIKRTVAAPSVFIFPPSDEQLKSGTASVVCLLNNFYPREAKVQWKVDNALQSGNSQESVTEQDSKDSTYSLSSTLTLSKADYEKHKVYACEVTHQGLSSPVTKSFNRGEC
heavy: AVNGTSQFTCFYNSRANISCVWSQDGALQDTSCQVHAWPDRRRWNQTCELLPVSQASWACNLILGAPDSQKLTTVDIVTLRVLCREGVRWRVMAIQDFKPFENLRLMAPISLQVVHVETHRCNISWEISQASHYFERHLEFEARTLSPGHTWEEAPLLTLKQKQEWICLETLTPDTQYEFQVRVKPLQGEFTTWSPWSQPLAFRTKPAALGKDGGGGSVHMPLGFLGPGGS[about 120 residues left out][about 100 residues left out][human IgG1 Fc left out]
notes: masked K91 fusion with IL-2 F42A, uncleaved; also called n780; construct No 780
For B3, in experiment [1], the “EC50 before cleavage IL-2, HEK Blue IL-2 αβγ reporter assay” value amounted to 0.64 nM and the “EC50 ratio (BC/AC), HEK Blue IL-2 αβγ reporter assay” value stood at 34. Moreover, in experiment [4], the “EC50 before cleavage IL-2, HEK Blue IL-2 βγ reporter assay” value is 0.23 nM and the “EC50 ratio (BC/AC), HEK Blue IL-2 βγ reporter assay” value is 17. Moreover, in experiment [2], the concentration for a half-maximal effect (EC50) turned out to be 41.2 nM. The “Binding before cleavage (BLI)” value with His-tagged human CD47 came out at 0.5 nm. In experiment [3], the “Binding recovery (BC/AC)” value stood at 40.
